Read counts are not given, so values of variants with three or more changes are uncertain.
B1: CPEB3 Ribozyme (parent)
chain: UAACAGGGGGCCACAGCAGAAGCGUUCACGUCGCAGCCCCUGUCAGAUUCUGGUGAAUCUGCGAAUUCUGCUGUAUAUCUC

Variants of: B1
Assay: self-cleavage, relative activity (ratio to wild type); higher = more cleavage; in vitro, sequencing
Summary of the method: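 Barcoded CPEB3 ribozyme mutants, produced by rounds of error-prone PCR, self-cleaved while being transcribed with T7 RNA polymerase for 5 hours at 37°C and during a subsequent 15 min DNase I step before EDTA was added. Sequencing of template-switched cDNA on Illumina gave cleaved and total reads, and DNA sequencing assigned barcodes to variants. Each variant's relative activity is its cleaved/total read fraction divided by the unmutated ribozyme's fraction, averaged across three batches. A variant needed a minimum of 5 reads.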

Variant	self-cleavage
U69A C71U U72A	0.23
U69A C71U U72C	0.48
U69C U72A U78C	0.31
U58C G70U U72C	0.44
A65G U72C C81U	0.81
U58A U74A A77U	0.59
U60G C62G U76A	0.2
A57U A64G A75U	0.48
A75U C79A C81U	1.49
U72C G73U U78C U80C	1.32
U69C A77U U80A	0.87
U58C U69A A77G	0.36
U69A U72A G73C	0.88
U60C U69A U72G	0.29
U60C U72C U78C U80C	0.32
U66C U78C U80C	0.21
U60A A65G U76C	0.38
U58C U60A U72G	0.3
A57U U58C A64U A65U	0.14
U58C A65U U72A U80C	0.28
A57U U58C A75U	0.39
G63A U72C A77G	1.12
A57U U72C U78C	0.91
U60G C68A U80C	0.36
U67A U72G U78C	0.34
G63A U72C U80C	1.18

Variant	self-cleavage
A65U U69A U74C	0.36
U58A A75G U80C	0.14
C62U A65G U67C	0.5
A57U U60A U72G U78A	0.38
C59U U72C U80C	1.06
U72C U74C U80A	1.26
U72C U76A U78A	1.27
U58C G63C U72A U80A	0.54
G63A A64G U80C	0.64
U58C U76C U78C	0.57
U58A A64U U69A	0.17
A64G U76C U78C	0.93
G63C A64G U80C	0.84
A64G U67A U72C C79U	0.24
U60A U66C G73A	0.29
U60G A65G U76C A77G	0.15
U58G C71U A75G	0.19
A65U U72A A77G U80A	0.34
U58C U60C U76C	0.18
A64U U69C G70C	0.21
U58C U66C U69C U72C	0.26
C59G A64U U72C C79A	0.11
A64G A65G U66C U76A	0.56
U58C U69C C81U	0.2
A64U U66C U69C	0.3
U67C U69C U72A	0.29

Variant	self-cleavage
U66A U72C U80C	0.69
C62U C68A U80C	0.21
U58C U60C A65C G73C	0.16
U60C U72C A75G U80C	0.54
U60A A64G A75C	0.52
U60A A64G A75U	0.37
C62U U74A A77U	0.2
A65G U67A U69A	0.31
U66C U69C U80C	0.25
G61A C62U U69C U72C	0.24
U67C G70C A77G	0.17
U58G U76C A77G	0.37
U58A U67C U69A A75G	0.49
U60C G70A U76C	0.48
C62U A75U U78C	0.17
A65G U66A C71U U72C	0.22
U60A U66C G73A U76A A77G	0.41
A57U A64U U69G	0.23
U66C A75U U78A	0.43
U66A A75G U76C	0.25
U72C A77G C81A	1.3
U58G C71U U78C	0.32
U69G U72C A77U	0.44
G63A A64G U72G	0.72
U58A U69C U80A	0.24
C62U A64G U69C U80A	0.3

Variant	self-cleavage
A64G A65C U67C	0.26
A65C G73C U80A	0.15
U58C U60G U76A	0.16
U69A A75G U80C	0.22
C62U U72C A77G	0.29
U60C U66C U74C	0.26
A64G U72C A75G U80A	0.92
G63A A64G U66C	0.47
U66G U67C C71A	0.24
U60C C62G U66C	0.29
U58A A64U G73U U74C	0.19
U69G U74C U78C	0.43
G63A U72C A75G	1.19
U67A U72A U74G	0.72
A64U A75G U78C	0.21
U67C U74C U80C	0.41
G63A U66C U72C	0.48
U66C U67C U72A U76A	0.13
G70C U72C U80A	0.26
A65G U66C U72A A75G A77G	0.22
C62G U66A U80C	0.48
A65U U66C U69C	0.09
C62U U66C U69A U78C	0.16
U60C C68A U69C U76A	0.11
C62U U66C G73A	0.51

— the RNAGym collection of RNA variant scans (doi:10.1093/nar/gkz1192)
